# Screen size: about 310,000 compounds; about 2,200 (0.71%) showed an effect of 50% or more. Effects have a minus sign here. Some of the results follow.
# Molecular target: human ether-à-go-go-related gene (hERG) potassium channel (human, UniProt Q12809)
# Experiment: primary screen, population patch clamp on CHO cells stably expressing hERG
# human ether-à-go-go-related gene (hERG) potassium channel, sequence (Q12809 whole entry, looked up): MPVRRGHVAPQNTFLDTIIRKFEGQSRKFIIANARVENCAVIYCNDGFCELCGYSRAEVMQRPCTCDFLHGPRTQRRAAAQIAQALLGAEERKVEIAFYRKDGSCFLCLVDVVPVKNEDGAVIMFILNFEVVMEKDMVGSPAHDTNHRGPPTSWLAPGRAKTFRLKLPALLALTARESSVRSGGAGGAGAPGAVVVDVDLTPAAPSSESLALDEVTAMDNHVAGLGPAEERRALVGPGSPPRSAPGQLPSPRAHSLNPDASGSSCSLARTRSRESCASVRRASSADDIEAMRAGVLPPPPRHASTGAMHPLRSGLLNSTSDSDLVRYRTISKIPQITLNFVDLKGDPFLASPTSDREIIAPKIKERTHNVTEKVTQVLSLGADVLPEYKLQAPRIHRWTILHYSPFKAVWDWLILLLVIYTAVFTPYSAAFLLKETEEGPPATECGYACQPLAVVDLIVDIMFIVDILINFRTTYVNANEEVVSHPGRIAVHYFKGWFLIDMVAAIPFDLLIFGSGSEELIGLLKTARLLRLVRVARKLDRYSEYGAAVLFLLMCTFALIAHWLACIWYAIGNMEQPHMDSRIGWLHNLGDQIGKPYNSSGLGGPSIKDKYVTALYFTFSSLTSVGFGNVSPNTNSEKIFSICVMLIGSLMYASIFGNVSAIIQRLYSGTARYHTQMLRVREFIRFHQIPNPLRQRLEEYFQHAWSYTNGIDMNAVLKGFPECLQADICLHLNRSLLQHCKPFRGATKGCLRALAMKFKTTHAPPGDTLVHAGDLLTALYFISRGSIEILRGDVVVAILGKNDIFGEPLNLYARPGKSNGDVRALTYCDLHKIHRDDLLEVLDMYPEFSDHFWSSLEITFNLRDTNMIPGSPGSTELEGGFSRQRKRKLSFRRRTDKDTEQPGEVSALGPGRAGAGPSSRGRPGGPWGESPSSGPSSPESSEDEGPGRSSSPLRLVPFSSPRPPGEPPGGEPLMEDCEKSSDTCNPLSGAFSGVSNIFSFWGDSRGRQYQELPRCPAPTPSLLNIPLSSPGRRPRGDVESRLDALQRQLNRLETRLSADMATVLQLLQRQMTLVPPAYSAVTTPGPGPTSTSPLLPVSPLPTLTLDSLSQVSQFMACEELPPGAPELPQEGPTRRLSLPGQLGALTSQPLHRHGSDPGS
row,Structure (SMILES),"hERG current change (%, negative = inhibition) at 1uM [%]"
1,CSc1ccccc1C(=O)N1CCC(CCC(=O)NC2CC2)CC1,16.1
2,Cc1ccc(S(=O)(=O)N(C)C)cc1NC(=O)COC(=O)c1ccc2c(c1)NC(=O)CS2,-25.7
3,COc1ccc(C(C(=O)NCC2CCCO2)N(C(=O)CNC(=O)c2ccco2)c2cc(C)ccc2C)cc1OC (stereo not shown),9.34
4,CSCCC(=O)N1CCC(n2nccc2NC(=O)CCc2ccccc2)CC1,5.02
5,Cc1ccc(S(=O)(=O)NCc2ccccc2)cc1C(=O)N(C)Cc1ccccc1F,-8
6,CC(C)(C)OC(=O)CNC(=O)c1nc[nH]c1C(=O)N1CCN(C(=O)OC(C)(C)C)CC1,7.46
7,Cc1nc(C)c(-c2ccc(SCC(=O)Nc3ccc(C)c(Cl)c3)nn2)s1,18.6
8,COc1ccc(S(=O)(=O)NCC(c2ccc3c(c2)OCO3)N2CCOCC2)cc1C (stereo not shown),0.279
9,O=C(Cn1nnc2ccccc2c1=O)N1CCCc2ccccc21,2.01
10,O=C(N=C1SC2CS(=O)(=O)CC2N1c1ccc(OC(F)(F)F)cc1)C1CC1 (stereo not shown),13.9
11,CCc1cc2c(=O)n(C(C)C(=O)OC3CCCCC3)cnc2s1 (stereo not shown),4.66
12,O=C(COC(=O)Cc1c(F)cccc1Cl)NC1CCS(=O)(=O)C1 (stereo not shown),14.9
13,CC(/C=N/N1CCN(c2ccccc2)CC1)=C\c1ccccc1,1.55
14,Cc1cccc(Nc2nc(N3CCN(C)CC3)nc(N)c2[N+](=O)[O-])c1,-18.3
15,COc1ccccc1CCNS(=O)(=O)c1c(C)n(C)c(=O)n(C)c1=O,11.8
16,COCCOC(=O)c1c(C)n(C)c2ccc(OC(=O)c3c(OC)cccc3OC)cc12,13.4
17,COc1ccc(C(=O)NC2CC3CCCC(C2)N3Cc2ccccc2)cc1OC (stereo not shown),5.6
18,O=C(Nc1cc(Cl)cc(Cl)c1)C(NCCCO)c1ccccc1 (stereo not shown),9.88
19,CN(CC(=O)NCc1ccco1)S(=O)(=O)c1ccc(F)cc1,12.8
20,COc1ccc(OC)c(NC(=O)Cc2coc3ccc4ccccc4c23)c1,6.41
21,O=C(O)c1n[nH]c2c1CC(C1CCCCC1)CC2 (stereo not shown),16
22,O=C(O)c1cccc(Sc2ccc(Br)cc2C(=O)O)c1,15.6
23,COc1cccc(C2=NOC(C(=O)N3CCN(Cc4ccccc4)CC3)C2)c1OC (stereo not shown),-3.98
24,Cc1ccc(C)c(NC(=O)C2CCCN2/C=C/C(=O)C(F)(F)F)c1 (stereo not shown),9.47
25,CC(=O)/C(C#N)=C1\NC(=O)C(Cc2ccc(C)c(Cl)c2)S1 (stereo not shown),15.3
26,CCC(=O)c1ccc(OCC(=O)OCC(=O)N2c3ccccc3NC(=O)C2(C)C)cc1,3.95
27,Cc1ccc(N2C(=O)c3ccc(C(=O)N4CCN(c5ccc(C)c(C)c5)CC4)cc3C2=O)cc1,3.93
28,CCC(=O)NNc1nc2c(C)cccc2s1,14.8

row,Structure (SMILES),"hERG current change (%, negative = inhibition) at 1uM [%]"
1,Cc1cc(=O)oc2c(C)c(OC(C)C(=O)Nc3ccc(N4CCC(C)CC4)cc3)ccc12 (stereo not shown),27.2
2,C=CCn1c(O)c2ccc(C(=O)N=NC(=O)COc3ccc(OC)cc3)cc2c1O,-5.49
3,CCC(=O)Nc1ccc(Cl)c(NC(=S)NC(C)=O)c1,9.48
4,CCOC(=O)C1CCN(C(=O)Cc2ccc(C)cc2)CC1,2.81
5,O=C(O)c1ccc2c(c1)C(=O)N(CCC1=CCCCC1)C2=O,15.5
6,O=C(CCCn1ncn2c(cc3occc32)c1=O)NCc1ccccc1F,12.8
7,O=C(NCC1CCCCC1)c1ccc(F)cc1Cl,1.83
8,Cc1ccc(NC(=O)CS(=O)CC(=O)N(CC(=O)NC2CCCC2)c2cc(C)ccc2C)cc1 (stereo not shown),-4.49
9,COc1ccc(C(=O)Nc2ccc(SC(F)F)cc2)cc1,5.09
10,CCN(C(=O)COc1ncnc2ccc(Br)cc12)C1CCS(=O)(=O)C1 (stereo not shown),9.82
11,O=C(O)c1cn(-c2ccc(N3CCCC3)c(F)c2)c2c(F)c(F)c(F)cc2c1=O,6.4
12,COC(=O)C1=C(c2ccc(S(C)(=O)=O)cc2)C[C@@H]2CC[C@H]1N2C(=O)NC1CCCCC1,-0.273
13,CCC(COC(=O)NC)NC(=O)Oc1ccccc1 (stereo not shown),1.53
14,O=C(NCCCn1cccn1)C1CCC(=O)N(Cc2cccc(C(F)(F)F)c2)C1 (stereo not shown),7.02
15,Cc1oc(-c2ccccc2Cl)nc1CS(=O)(=O)CC(=O)NCCc1ccccc1,9.38
16,NS(=O)(=O)c1ccc(NC(=O)COC(=O)c2cc3ccccc3oc2=O)cc1,1.43
17,CSc1cccc(NC(=O)C(C)Sc2ccc(C)cc2)c1 (stereo not shown),2.6
18,COc1ccccc1C(=O)NC(CCSC)C(=O)N1CCC(Cc2ccccc2)CC1 (stereo not shown),-0.203
19,CCCn1c(N/N=C\C=C\c2ccccc2)nc2c1c(=O)[nH]c(=O)n2C,-3.7
20,Cc1ccc(CNC(=O)c2ccccc2N)cc1,7.07
21,COCCNc1nc(-c2cc(C(=O)Nc3ccccc3)on2)cc(C(C)C)n1,13.5
22,O=C(C1CCN(S(=O)(=O)c2cccc3cccnc23)CC1)N1CCN(C2CCCCC2)CC1,7.43
23,Cc1[nH]c2ccccc2c1C(=O)CN1CCN(C/C=C/c2ccccc2)CC1,-50.4
24,Cc1ccc(C(=O)NCCCN2CCOCC2)cc1N1CCCC1=O,6.01
25,CCOc1ccc2[nH]c(C)c(CN3CCN(C)CC3)c(=O)c2c1,-13.4
26,COCCn1c(=S)[nH]c2cc(C(=O)N3CCN(c4ccccc4OC)CC3)ccc2c1=O,6.84
27,Cc1ccc(NC(=O)c2cc(C)no2)cc1,13.3

# — paper PMC4336329 (PLoS ONE, 2015)
